Data: PubChem BioAssay (NCI)
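Interpolation was linear, between the two tested concentrations surrounding the appropriate level; five concentrations were tested over 48 hours in 96-well plates. GI50 marks 50% less growth. TGI: concentration producing complete growth inhibition.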

Tested on: NCI-H322M lung
Experiment: NCI tumour cell line growth inhibition, 48 h

SMILES: COc1ccc([C@H]2[C@H](O)C(=O)N2c2cc(OC)c(OC)c(OC)c2)cc1F
- GI50: < 0.01 µM
- TGI: > 100 µM
